The record followed here is PubChem BioAssay AID1240 (Sanford-Burnham Center for Chemical Genomics, 2008).

Out of some 50,000 compounds screened, about 800 (1.6%) showed an effect of 50% or more. This is one part of the list.

In the assay the target is Bcl-2-like protein 10 (Homo sapiens) (UniProt Q9HD36). The assay can be described thus: Phenotype converters, Bcl-B/TR3 peptide binding displacement, primary biochemical FP (AID 1240).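 Further: 0% = Bcl-B with tracer peptide and DMSO and 100% = tracer peptide lacking Bcl-B.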 The note with it: GST-Bcl-B / FITC-TR3 peptide fluorescence polarization; stronger effect = higher value; compound at 3.75 mg/L. In general terms: In fluorescence polarisation assays a small probe gives low polarisation when free and higher when bound to something large.
Sequence of UniProt Q9HD36 (Q9HD36 whole entry, looked up): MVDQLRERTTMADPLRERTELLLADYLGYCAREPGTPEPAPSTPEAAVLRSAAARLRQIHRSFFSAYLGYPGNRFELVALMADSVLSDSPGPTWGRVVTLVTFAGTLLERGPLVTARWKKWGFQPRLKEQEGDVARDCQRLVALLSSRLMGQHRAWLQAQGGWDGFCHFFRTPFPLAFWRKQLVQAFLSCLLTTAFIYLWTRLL
In the case of `CC(C)COC(=O)C(C)Nc1n[nH]c(=O)[nH]c1=O` (stereo not drawn), the displacement came out at 7.1%. Then `CC(CN)(NS(=O)(=O)c1ccccc1)c1ccccc1` (stereo not drawn), with -3.2%.

Regarding `CCc1c(C)sc(NC(=O)C(CC)c2ccccc2)c1C(=O)OC` (stereo not drawn), the displacement came out at 2.4%. Then `C=CCc1cccc2cc(C(=O)N3CCN(Cc4ccccc4)CC3)c(=O)oc12`, with 3.2%.

`Nc1nc(-c2ccccc2Cl)cs1`: the displacement is 4.7%. To `CC1(C)Cc2ccccc2C(/C=C2\NC(C)(C)Cc3ccccc32)=N1` belongs -1.7%; to `CCOC(=O)c1ccccc1NC(=O)c1ccc(Cl)cc1`, 2.7%. To `CC(=O)Nc1ccc(/C=C2\SC(=S)N(C)C2=O)cc1` belongs -3.2%; to `CCOc1cc(OCC)cc(C(=O)Nc2ccc(NC(=O)c3ccc(Br)cc3)cc2)c1`, -4.1%. To `CCOc1cccc(N2C(=O)CC(SCC(=O)Nc3ccc4ccccc4c3)C2=O)c1` (stereo not drawn) belongs -5.1%; to `O=C(N/N=C/c1ccc(F)cc1)c1cc(C2CC2)[nH]n1`, -1.3%.

As for `CCOC(=O)c1c(C)[nH]c(N=Nc2ccc(C)cc2)c1C`, the displacement is 2.4%. To `O=C(CSc1ncn[nH]1)N1c2ccccc2Sc2ccc(Cl)cc21` belongs 9.6%; to `COc1ccc(N(CC(=O)Nc2ccc(C)cc2C)S(C)(=O)=O)c(OC)c1`, -0.6%.

Regarding `O=C(NCC1(c2ccccc2)CCCC1)c1ccccc1Cl`, the displacement was -4.6%. Turning to `O=C1C(Cl)=CC(=NS(=O)(=O)c2ccccc2)C=C1Cl`, the displacement was 30.3%. In the case of `Cc1ccc(/C=C(\NC(=O)c2ccc(C)cc2)C(=O)NC(C)C)cc1`, the displacement is 8.9%.

Consider `COc1ccc(OC)c(N(CC(N)=O)S(C)(=O)=O)c1`, for which the displacement was 10.8%. To `O=C(NCCCCOc1ccccc1)C(O)(c1ccc(F)cc1)c1ccc(F)cc1` belongs -5.5%; to `CCOC(=O)c1ccc(NC(=O)CCNC(=O)c2ccccc2NC(=O)c2ccc(OC)cc2)cc1`, 13.1%; to `Clc1ccc(N2CCN(/N=C\c3cccs3)CC2)cc1`, -6%. On to `C=CCN1C(=O)/C(=C\c2ccc(-c3ccc(Br)cc3)o2)C(=O)NC1=S`, for which the displacement is 1.1%.

On to `CCOC(=O)C1=C(CC)NC2=C(C(=O)CCC2)C1c1ccc(-c2ccccc2)cc1` (stereo not drawn), for which the displacement is -4.9%. Then `O=C(O)c1ccccc1-c1ccc(/C=N/n2cnnc2)o1`, with 4.2%; and `COc1ccccc1NC(=O)C(=O)NCc1ccco1`, with -4.7%. To `CCOc1ccc(-c2cc(C)n3nc(C(=O)Nc4cc(C)ccc4O)cc3n2)cc1` belongs 1.1%; to `COc1cc([N+](=O)[O-])ccc1NC(=O)Cn1cnc2c1c(=O)n(C)c(=O)n2C`, 10%.

As to `CC1=CC(C)(C)N(CC(=O)c2ccc([N+](=O)[O-])cc2)c2c(C)cccc21`, the displacement was -12.3%. Regarding `COc1ccc(S(=O)(=O)Nc2ccc(C(N)=O)cc2)cc1`, the displacement came out at 1%. To `Cc1ccc(S(=O)(=O)N2CCN(Cc3ccc(Br)cc3)CC2)cc1` belongs 11.6%. For `CCCOC(=O)c1c(-c2ccc(Cl)c(Cl)c2)csc1N`, the displacement is -5.8%.

Turning to `CC1=NN(C(=O)C(C)(C)C)C(O)(c2ccccc2)C1` (stereo not drawn), the displacement was -7.3%. Then `COc1cc(NC(=O)c2ccc(Cl)cc2Cl)cc(OC)c1`, with 8.8%; and `COCCN=C1NS(=O)(=O)c2ccccc21`, with 13.1%. Then `O=C(Nc1cccc(Cl)c1)C1CC1(c1ccccc1)c1ccccc1` (stereo not drawn), with -0.6%. To `CCOC(=O)c1sc(N/N=C/c2ccc(O)cc2)nc1C` belongs -10.2%; to `Cc1ccc(S(=O)(=O)OCP(=O)(c2ccccc2)c2ccccc2)cc1`, 13.5%; to `COC(=O)c1cc(-c2ccc(OC)c(OC)c2)nc2ccccc12`, -5.5%. In the case of `O=C(Nc1cccc(F)c1)c1cccc(F)c1`, the displacement was 10.1%. To `O=C(CCc1ccccc1)NCc1cccnc1` belongs 5.6%; to `COc1ccccc1/C=N/NC(=O)c1cc(-c2ccc(C)cc2)n[nH]1`, -6.7%. For the compound `O=C(O)c1ccc(N2C(=O)c3cccc4c([N+](=O)[O-])c(O)cc(c34)C2=O)cc1`, the displacement is 39.6%. As for `CC(=O)c1ccc(NCCC(=O)c2ccccc2)cc1`, the displacement was -15.1%.

In the case of `Cc1cccc(-c2noc(-c3ccc(I)cc3)n2)c1`, the displacement was determined as 2.2%. As for `COc1ccc(C(=O)N2CCN(S(=O)(=O)c3ccccc3)CC2)cc1`, the displacement was determined as 19.1%.

With `COc1cc(Br)c(/C=C2\C(=O)NC(=O)N(c3cc(C)cc(C)c3)C2=O)cc1OC`, the displacement is -0.5%. As to `O=C(CSc1nc2ccccc2[nH]1)Nc1ccc(Cl)cc1`, the displacement was -10%.

As for `Cc1cc(C)cc(CC2CC(=O)N(c3ccc(Br)cc3)C2=O)c1` (stereo not drawn), the displacement is -8%. To `O=C(/C=C/Nc1ccc(F)c(Cl)c1)c1ccc(Br)cc1` belongs -5.1%. As for `O=C1NC(=O)N(Cc2ccccc2)C(=O)/C1=C/c1cccs1`, the displacement came out at 15.6%.

Regarding `COc1ccccc1NC(=O)c1c(N)sc2c1CCCC2`, the displacement was found to be 4.5%.

`Cc1cc(Br)cc(C)c1NC(=O)C(C)C`: the displacement was 18.2%. With `COc1ccccc1CNC(=O)c1c(-c2ccccc2Cl)noc1C`, the displacement worked out at 4.6%. Consider `CC(=O)N(c1cccc(C)c1)S(=O)(=O)c1ccc(Cl)cc1`, for which the displacement is 6.6%. For `CCOC(=O)C(C(C)=O)c1cc(NS(=O)(=O)c2ccc(C)cc2)c2ccccc2c1NS(=O)(=O)c1ccc(C)cc1` (stereo not drawn), the displacement came out at 78.8%.

For the compound `COc1ccc(C)cc1NCc1ccc(OC)c(C)c1OC`, the displacement was 9.2%. For the compound `CCn1c(C)nc2cc(C(=O)Nc3ccccc3)ccc21`, the displacement is 14.4%.

For the compound `COc1ccccc1CNC(=O)c1cccc(F)c1`, the displacement is -3.8%. Take `CC1(C)Nc2ccccc2N(Cc2ccc([N+](=O)[O-])cc2)C1=O`: the displacement was -1.7%. Then `CCOC(=O)COc1cc(C)c2c(=O)c(-c3nc(C)cs3)coc2c1`, with -5.1%; and `Cc1ccc(NC(=O)COc2ccc3ccccc3c2)c(C)c1`, with -7.2%. Turning to `CCOC(=O)C1=CN(c2ccc(F)cc2)C=C(C(=O)OCC)C1c1cc(OC)c(OC)c(OC)c1`, the displacement was -2.3%.

As for `O=C(CN1C(=O)/C(=C/c2cccc(Br)c2)SC1=S)Nc1ccccn1`, the displacement was found to be 69%. Then `COc1ccccc1N1CCN(/N=C\c2cccnc2)CC1`, with 1.1%.

As for `c1ccc2c(N3CCCCC3)nc(-c3ccncc3)nc2c1`, the displacement came out at 21.4%. In the case of `Cc1cccc(C)c1OCC(=O)Nc1ccccc1`, the displacement stood at 15%. For `CC(CCCC(C)(C)O)CC1OCCO1` (stereo not drawn), the displacement amounted to 1%. As for `CC1=C(C)CC2C(=O)N(c3ccc(F)cc3)C(=O)C2C1` (stereo not drawn), the displacement was -2%. To `Cc1ccc(OCCCn2ccnc2)c(Cl)c1` belongs -12.6%.

Consider `CCSc1nc2sc3c(c2c2nncn12)CCN(C)C3`, for which the displacement came out at 30.6%. Then `COc1ccc(CCNC(=O)c2c(-c3ccccc3Cl)noc2C)cc1`, with -0.9%; and `O=C(Nc1ccccc1F)c1ccccc1F`, with 8.1%.

On to `COc1ccc(NC(=O)Nc2ccc(Cl)c(Cl)c2)cc1OC`, for which the displacement was 1.8%. Take `CN(C)c1cccc(C(=O)n2nnc3ccccc32)c1`: the displacement came to 9.6%. With `Cc1ccc(S(=O)(=O)/N=C2\C=C(n3cnc4ccccc43)C(=O)c3ccccc32)cc1`, the displacement was found to be 7.5%. Then `COc1cccc(C(=O)NNS(=O)(=O)c2ccccc2)c1`, with -0.2%.

Turning to `COc1ccc(N2C(=O)NC(=O)/C(=C\c3ccc(OCc4cccc(F)c4)c(OC)c3)C2=O)cc1`, the displacement was -11.6%. To `O=C(CSc1nnc(SCC(=O)NC2CCCC2)s1)NC1CCCC1` belongs -1.1%; to `CC1=NN(c2ccc(S(N)(=O)=O)cc2)C(=O)/C1=C\c1ccc(-c2cccc([N+](=O)[O-])c2)o1`, 1.9%; to `COc1cc(/C=N/N=C2/NC(=O)C(CC(=O)Nc3cccc(Cl)c3Cl)S2)ccc1O` (stereo not drawn), 10.3%. To `COc1cc(/C=N/N2C(=O)CSC2=S)ccc1OCCOc1ccc(C(C)(C)C)cc1` belongs 8.2%; to `C/C(=N\NS(=O)(=O)c1ccc(C)cc1)C(C)(C)CC(=O)O`, 7.8%; to `O=C(CNC(=O)C(c1ccccc1)c1ccccc1)N/N=C/c1cn[nH]c1-c1ccccc1`, -9.5%. Then `O=C1NC(=O)N(c2ccccc2)C(=O)/C1=C/c1ccc(N2CCOCC2)o1`, with 13.9%.

Regarding `O=C(CC1Nc2ccccc2NC1=O)Nc1ccccc1C(F)(F)F` (stereo not drawn), the displacement turned out to be 5.1%. To `CCOc1ccc(N2C(=O)/C(=C/c3cc(Br)c(O)c(OC)c3)C(=O)NC2=S)cc1` belongs -12.9%; to `O=C(COc1ccc(Cl)cc1)N(c1ccccc1)c1ccccc1`, 16.4%; to `Nc1ccc(NC(=O)c2ccc(Cl)cc2Cl)c(Cl)c1`, 13.5%. To `CCOc1ccc(NC(=O)/C=C/c2cc(Br)cs2)cc1` belongs 10.1%. To `O=C(Cc1ccccc1)Nc1ccc(C(=O)Nc2nccs2)cc1` belongs 6.5%; to `O=C(CSc1nnnn1-c1ccccc1)C1CC1`, 3.5%; to `COc1ccc(/C=C2/C(=O)NN(c3cccc(Cl)c3)C2=O)cc1OC`, 16.3%. On to `COC(=O)C1=C(C)N(c2ccc(C)c(C)c2)/C(=C/c2ccco2)C1=O`, for which the displacement worked out at 8.8%. On to `Cc1ccc(C(=O)c2oc3ccccc3c2C)cc1`, for which the displacement came out at 26.7%. To `Cc1cc(/C=C2\SC(=O)N(C)C2=O)c(C)n1-c1cccc([N+](=O)[O-])c1` belongs 12.2%. For `CN(C)C(=O)/C(C#N)=C\c1ccc(-c2ccc(S(N)(=O)=O)cc2)o1`, the displacement stood at 3.2%. With `Cn1/c(=N/N=C/c2ccncc2)sc2ccccc21`, the displacement was 8.7%. `COc1ccc(NC(=O)CCCOc2ccc(Cl)cc2Cl)c(OC)c1`: the displacement is -3.2%. Consider `Cc1cccc(C)c1NC(=O)c1cc2ccccc2o1`, for which the displacement turned out to be 5.3%. Then `O=C(O)C1=CNC=C(C(=O)O)C1c1ccc(O)cc1`, with 3.2%; and `Cc1ccc(OCC(=O)NC23CC4CC(CC(C4)C2)C3)cc1`, with 13.6%. Then `Cc1ccc(OCC(=O)Nc2ccc(Cl)cn2)c(C)c1`, with 8.5%. Then `Cc1ccc(C(=O)N2CCN(c3cccc(Cl)c3)CC2)cc1C`, with -5.7%. In the case of `Cc1ccc(C(=O)Oc2ccc(/C=C3\SC(N)=NC3=O)cc2)cc1`, the displacement came out at 10.2%. Then `Cc1ccc(OCCOc2ccc(Br)cc2/C=N/n2cnnc2)cc1C`, with 2.5%. To `COc1cccc(OCCOc2ccc(/C=N/n3cnnc3)cc2)c1` belongs -3.9%. To `COC(=O)C1=C(C)NC(=O)NC1c1cccc(Cl)c1` (stereo not drawn) belongs -4.4%. `NC1=NC(=O)C(CC(=O)Nc2cccc([N+](=O)[O-])c2)S1` (stereo not drawn): the displacement was -1.9%. Then `CS(=O)(=O)N(CC(=O)Nc1cccc(Br)c1)c1cccc(Cl)c1`, with 0.3%; and `O=C(CN(Cc1ccccc1)S(=O)(=O)c1ccc(Br)cc1)NCc1ccccn1`, with 9.6%; and `CCN(CC)c1ccc(NC(=O)c2cccc(C)c2)cc1`, with 14.5%. Then `COc1ccc(Cl)cc1N(S(=O)(=O)c1ccc(NC(C)=O)cc1)S(=O)(=O)c1ccc(NC(C)=O)cc1`, with 9%; and `COc1ccc(C(=O)Nc2ccc3nn(-c4ccc(F)cc4)nc3c2)cc1Cl`, with 8.3%.
